In PubChem BioAssay AID1460 (National Center for Advancing Translational Sciences (NCATS), 2008):
Hit rate of the full screen: of about 270,000 compounds, about 5,800 (2.1%) were called active. The inconclusive results got no clear call from the source; some entries with a clear call stand among them for comparison. Calls follow the shape of the dose curve; as a rule, active = well fitted inhibition curve with a large enough effect; inconclusive = small, poorly fitted or top-dose-only effect; inactive = flat fitted curve, though single readings scatter. A potency beside an inconclusive call is a rough fit, not a confirmed value.
% is scaled to controls: 0 for no effect and ±100 for the full control effect; potency is read from the fitted curve at half-maximal effect; tags tell the direction and shape of the fitted curve.
Also: nearly all actives have a fitted effect of over 55% in size.

These compounds were tested against Microtubule-associated protein tau (Homo sapiens) (UniProt P10636) (assay: qHTS for Inhibitors of Tau Fibril Formation, Thioflavin T Binding). Settings: recombinant tau K18 P301L (four-repeat tau fragment), heparin-induced fibrillization, ThT fluorescence; series mostly up to 57.4 µM.
Sequence of UniProt P10636 (P10636 whole entry, looked up, the tested form may be a part): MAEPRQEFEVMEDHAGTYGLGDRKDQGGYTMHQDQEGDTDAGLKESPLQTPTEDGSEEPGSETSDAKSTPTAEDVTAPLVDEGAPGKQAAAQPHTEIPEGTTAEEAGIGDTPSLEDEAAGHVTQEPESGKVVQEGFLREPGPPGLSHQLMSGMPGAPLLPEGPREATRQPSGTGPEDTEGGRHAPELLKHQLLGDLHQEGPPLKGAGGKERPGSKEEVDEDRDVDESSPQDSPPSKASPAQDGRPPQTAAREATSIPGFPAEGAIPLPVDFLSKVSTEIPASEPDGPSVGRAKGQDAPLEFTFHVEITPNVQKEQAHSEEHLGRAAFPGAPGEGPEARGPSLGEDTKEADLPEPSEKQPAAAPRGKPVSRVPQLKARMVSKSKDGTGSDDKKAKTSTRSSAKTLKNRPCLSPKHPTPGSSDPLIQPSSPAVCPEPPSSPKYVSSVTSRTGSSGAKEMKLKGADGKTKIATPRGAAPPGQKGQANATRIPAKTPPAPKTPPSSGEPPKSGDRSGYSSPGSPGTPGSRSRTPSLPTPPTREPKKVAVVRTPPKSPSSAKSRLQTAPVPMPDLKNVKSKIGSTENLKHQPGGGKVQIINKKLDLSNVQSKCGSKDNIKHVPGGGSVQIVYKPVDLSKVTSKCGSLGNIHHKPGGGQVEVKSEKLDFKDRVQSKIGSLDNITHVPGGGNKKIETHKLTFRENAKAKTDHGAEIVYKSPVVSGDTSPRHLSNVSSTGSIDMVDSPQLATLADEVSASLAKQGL
In short: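 In this qHTS, human K18 P301L tau is incubated with compound and heparin for 6 hr at 37 C, and Thioflavin T fluorescence then reports fibril load.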
With `Clc1ccc(OCc2nc(-c3ccc(Br)o3)no2)cc1` the Potency was inconclusive: 15.8 µM [inhibitor, partial curve].
In the case of `COC1=C(C)C(O)=C(C(=O)/C=C/c2ccccc2)C(=O)C1(C)C`, the Potency is reported as inconclusive: 20 µM [inhibitor, partial curve].
`CC(C)OCCCNc1ncc2c(n1)CC(c1cccs1)CC2=O` (centres undefined) was tested, and the Potency was inconclusive: 15.8 µM [inhibitor, single point].
With `Cc1ccc(C)c(S(=O)(=O)N2CC(=O)N(CCc3ccccc3)C(=O)C2)c1` the Potency was inconclusive: 15.8 µM [inhibitor, partial curve].
In the case of `Cc1cc(C)nc(NS(=O)(=O)c2ccc(Br)s2)c1`, the Potency is reported as “inactive”.
In the case of `CCCCN(CC)c1nc(N)c(C#N)c(CC#N)c1C#N`, the Potency is reported as inconclusive: 20 µM [inhibitor, single point].
For `COc1ccc(CN(C(=O)c2ccc(-c3ccccc3)[nH]2)C(C(=O)NCC2CCCO2)c2ccc(C)o2)cc1` (centres undefined), the Potency was inconclusive: 25.1 µM [inhibitor, single point].
In the case of `O=C(Cn1c(=O)oc2cc(S(=O)(=O)NCc3ccccc3)ccc21)N(CCO)Cc1ccccc1`, the Potency is reported as “inactive”.
With `Cc1ccc(N2C(=O)c3ccccc3C2Nc2ccc(S(=O)(=O)N3CCCCC3)cc2)nc1` (centres undefined) the Potency was “inactive”.
In the case of `COCCN1C(=O)/C(=C/c2ccc(Oc3ccc([N+](=O)[O-])cn3)c(OC)c2)SC1=Nc1ccccc1`, the Potency is reported as “inactive”.
In the case of `COc1ccc2c(=O)cc(-c3ccccc3F)oc2c1`, the Potency is reported as inconclusive: 39.8 µM [inhibitor, single point].
For `C/C(=N\Nc1nc(-c2ccccc2)cs1)c1cccs1`, the Potency was inconclusive: 14.1 µM [inhibitor, partial curve].
With `O=P(c1ccccc1)(c1ccccc1)N(c1ccccc1)c1ccccc1` the Potency was “inactive”.
In the case of `CSc1ccc2c(c1)[C@H](N1CCN(C)CC1)Cc1ccccc1S2`, the Potency is reported as inconclusive: 15.8 µM [inhibitor, partial curve].
With `CNC(=S)Nc1ccc(-c2nc3ccc(C)cc3s2)cc1` the Potency was “inactive”.
For `CCOc1cc(-c2nnc(SCC(=O)NCc3ccc(C)cc3)nc2-c2ccc(OC)c(OCC)c2)ccc1OC`, the Potency was inconclusive: 11.2 µM [inhibitor, partial curve, poor fit].
For `COc1ccc(/C=N/NC(=O)c2nc(-c3ccccc3)cc(-c3ccccc3)n2)cc1`, the Potency was inconclusive: 11.2 µM [inhibitor, partial curve].
In the case of `CCC1CCCCN1C(=O)c1ccc(OC2CCN(C(=O)C3CC3)CC2)cc1` (centres undefined), the Potency is reported as inconclusive: 25.1 µM [inhibitor, single point].
For `CCCCNc1ccc(S(N)(=O)=O)cc1[N+](=O)[O-]`, the Potency was inconclusive: 14.1 µM [inhibitor, single point].
`N#CC1=C2SCN(C3CCCCC3)CN2C(=O)CC1c1ccc(F)cc1` (centres undefined) was tested, and the Potency was active: 28.2 µM.
In the case of `Cc1ccc(C(=O)COC(=O)c2cn3ccccc3n2)cc1`, the Potency is reported as inconclusive: 31.6 µM [inhibitor, single point].
With `O=P(O)(CCc1ccccc1)CN1CCCCC1` the Potency was “inactive”.
For `CCN1C(=O)/C(=C2/C(=O)N3c4c(cc(OC(C)=O)cc42)C(C)=CC3(C)C)SC1=S`, the Potency was inconclusive: 17.8 µM [inhibitor, partial curve].
For `CS/C(N)=N/N=C/c1cc(C)ccc1O`, the Potency was inconclusive: 35.5 µM [inhibitor, single point].
For `CCCCC1OC23CCCCC2C(C#N)(C(=N)O3)C1(C#N)C#N` (centres undefined), the Potency was inconclusive: 35.5 µM [inhibitor, single point].
In the case of `Cc1ccc2oc(C(=O)Nc3sc4c(c3C(=O)NCc3ccccc3)CCCC4)cc(=O)c2c1`, the Potency is reported as inconclusive: 5.62 µM [inhibitor, partial curve].
For `Fc1ccc(OCc2nnc(SCCN3CCOCC3)o2)cc1`, the Potency was “inactive”.
With `O=C(c1ccc2c(=O)n(-c3ccccc3)c(=O)[nH]c2c1)N1CCN(c2ccc(F)cc2)CC1` the Potency was “inactive”.
In the case of `CC1=C(C)CC(c2ccccc2)C(C(=O)c2ccccc2O)C1` (centres undefined), the activity, negative = inhibition is reported as inactive: -5.23% [at 11.5 µM].
For `O=C(N/N=C/c1c(O)ccc2ccccc12)c1cccc(C(F)(F)F)c1`, the Potency was inconclusive: 3.16 µM [inhibitor, full curve].
For `CCOC(=O)CN1C(=O)C(CC)Oc2ccccc21` (centres undefined), the Potency was “inactive”.
`COC(=O)CC(c1ccc(F)cc1)n1c(C)ccc1C` (centres undefined) was tested, and the Potency was inconclusive: 44.7 µM [inhibitor, single point].
With `CCCOc1ccc2c3c(c(=O)oc2c1)CCCC3` the Potency was inconclusive: 7.94 µM [inhibitor, partial curve].
`CCOC(=O)c1ccc(N2CCN(c3ccccc3F)CC2)c(NC(=O)Nc2ccccc2)c1` was tested, and the Potency was inconclusive: 3.16 µM [inhibitor, single point].
With `C[C@H]1Cc2c(COc3ccccc3)nc3c(c2CO1)CN(C(=O)c1ccco1)CC3` the activity, negative = inhibition was inactive: -6.49% [at 11.5 µM].
`CCN1CCN(c2ncnc3c2sc(=S)n3-c2ccccc2)CC1` was tested, and the Potency was “inactive”.
With `CN1Cc2c(N3CCOCC3)nc(SCCC#N)c(C#N)c2CC1(C)C` the Potency was inconclusive: 39.8 µM [inhibitor, single point].
With `CC(c1ccccc1)N(CCC(c1ccccc1)C1CCOC(C)(C)C1)C(=O)c1ccco1` (centres undefined) the Potency was inconclusive: 39.8 µM [inhibitor, single point].
With `Cc1nn(Cc2ccccc2)c(Cl)c1C(=O)OCc1nnc(-c2ccccc2)o1` the Potency was “inactive”.
In the case of `COc1ccc(N2C3=C(CC4=C2CC(C)(C)CC4=O)C(=O)CC(C)(C)C3)cc1`, the Potency is reported as active: 20 µM.
`O=C(O)CC/C(=N/Nc1ccc([N+](=O)[O-])cc1)C(=O)O` was tested, and the Potency was inconclusive: 25.1 µM [inhibitor, partial curve].
With `COc1ccc(-c2nc(C)c(CCNC(=O)c3ccccc3Br)s2)cc1OC` the Potency was inconclusive: 12.6 µM [inhibitor, partial curve, poor fit].
`O=C(NCc1ccco1)c1cccn2c(=O)c3c4c(sc3nc12)CCCC4` was tested, and the Potency was inconclusive: 11.2 µM [inhibitor, partial curve].
In the case of `CCOc1cc(Br)c(C2C(C(=O)OC)=C(C)NC3=C2C(=O)c2ccccc23)cc1OCC` (centres undefined), the Potency is reported as inconclusive: 0.501 µM [inhibitor, full curve, poor fit].
For `S=C(Nc1ccccc1)c1ccccn1`, the Potency was inconclusive: 20 µM [inhibitor, partial curve].
`CCN(CC)c1ccc(/C=N/NC(=O)c2cccc(N3CCCC3=O)c2)cc1` was tested, and the Potency was inconclusive: 3.98 µM [inhibitor, partial curve].
With `COC(=O)c1c(NC(=O)CC2Nc3ccccc3NC2=O)sc(C)c1C` (centres undefined) the Potency was inconclusive: 22.4 µM [inhibitor, single point].
For `CCOc1ccc(-c2nnc(NC3=NCCCCC3)o2)cc1`, the Potency was “inactive”.
For `CC[n+]1c(/C=C2/C=C(C)CC(C)(C)C2)sc2ccc(OC)cc21`, the Potency was inconclusive: 20 µM [inhibitor, partial curve].
In the case of `Cc1ccccc1-c1nn(-c2ccc(F)cc2F)cc1CNCCN(C)C`, the Potency is reported as “inactive”.
`OC[C@@H]1[C@@H](c2ccccc2)C(c2cccc(Cl)c2)=NN1c1ccccc1` was tested, and the Potency was inconclusive: 31.6 µM [inhibitor, single point].
`Cc1cc(C)c(NC(=O)C2CCCN2CCOC(=O)c2cccc([N+](=O)[O-])c2)c(C)c1` (centres undefined) was tested, and the Potency was inconclusive: 39.8 µM [inhibitor, single point].
For `COc1ccc(C(=O)Nc2cccc(-c3nc4cccnc4s3)c2C)c(OC)c1`, the Potency was inconclusive: 1.78 µM [inhibitor, full curve].
`COC(=O)c1ccc(C2/C(=C(/O)c3ccc(OC)cc3)C(=O)C(=O)N2Cc2ccco2)cc1` (centres undefined) was tested, and the Potency was inconclusive: 20 µM [inhibitor, partial curve].
`COc1cc2c(cc1OC)C(c1cc(OC)c(O)c(OC)c1)CC(=O)N2` (centres undefined) was tested, and the Potency was “inactive”.
With `COc1cccc(/C=N/NC(=O)c2ccc(=O)[nH]n2)c1O` the Potency was inconclusive: 28.2 µM [inhibitor, single point].
For `CCOC(=O)C1CCCN(C(=O)C2CCN(S(=O)(=O)c3c(C)noc3/C=C/c3ccc(C)cc3)CC2)C1` (centres undefined), the Potency was “inactive”.
`O=C(O)c1ccccc1NC(=O)N1c2ccccc2Sc2ccccc21` was tested, and the Potency was inconclusive: 8.91 µM [inhibitor, full curve].
For `O=C(Cn1cncn1)c1ccc(F)cc1F`, the Potency was “inactive”.
With `Nc1cc(S(=O)(=O)Nc2cc(Cl)ccc2Cl)ccc1N1CCCC1` the Potency was inconclusive: 28.2 µM [inhibitor, single point].
`Cc1ccccc1C(=O)c1c[nH]c(C(=O)NCC2CCCO2)c1` (centres undefined) was tested, and the Potency was “inactive”.
With `C=CCN1c2ccccc2[C@]23C[C@@H](C(=O)OC)N(S(=O)(=O)c4ccc(C#N)cc4)C2=NC(C(=O)OC)=C(C(=O)OC)[C@H]13` the activity, negative = inhibition was inactive: 2.5% [at 11.5 µM].
With `Cc1ccc(-n2c(Cc3cccs3)nnc2SCC(=O)Nc2ccc(F)c(F)c2)cc1` the Potency was “inactive”.
For `O=C(/C=C/c1cn(CC(O)CN2CCc3ccccc32)c2ccccc12)c1ccc(Br)cc1` (centres undefined), the Potency was inconclusive: 4.47 µM [inhibitor, full curve].
For `O=C(CCCN1C(=O)/C(=C/c2cccs2)SC1=S)Nc1ccc(C(=O)O)cc1`, the Potency was inconclusive: 14.1 µM [inhibitor, partial curve].
`O=C(NCCc1csc(-c2ccc(F)cc2)n1)C(=O)Nc1ccc(Cl)cc1` was tested, and the Potency was “inactive”.
For `Cc1cc(C)c(S(C)(=O)=O)c(NN)n1`, the Potency was inconclusive: 20 µM [inhibitor, single point].
With `COc1cc(/C=C2\SC(=O)N(CCN)C2=O)ccc1OS(=O)(=O)c1cc(C)ccc1C` the Potency was inconclusive: 25.1 µM [inhibitor, single point].
In the case of `Cc1ccccc1OCCNc1cc(N2CC(C)NC(C)C2)ccc1[N+](=O)[O-]` (centres undefined), the Potency is reported as active: 17.8 µM.
